Out of some 420,000 compounds screened, about 64,000 (15%) were called active. This list was built around the results that the source calls inconclusive (neither active nor inactive); the mix of calls is not that of the screen. Calls follow the shape of the dose curve; as a rule, active = well fitted inhibition curve with a large enough effect; inconclusive = small, poorly fitted or top-dose-only effect; inactive = flat fitted curve, though single readings scatter. No potency is given beside an inconclusive call; the fits are too rough.
Assay: qHTS for Inhibitors of human tyrosyl-DNA phosphodiesterase 1 (TDP1): qHTS in cells in absence of CPT; also: nearly all actives have a fitted effect of over 55% in size
Conditions: DT40 Tdp1-/- hTDP1 cells, no CPT, ATP luminescence, 48 h; activity change, negative = growth inhibition: at 46.2 µM (top of the series) unless noted
Procedure, shortened: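 Seeded 400 DT40-hTDP1 cells/well (vehicle DMSO, no 20 nM CPT); pinned compounds; ≥48 hr at 37 °C; CellTiter-Glo luminescence as viability measure.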
% is scaled to controls: 0 for no effect and ±100 for the full control effect; potency is read from the fitted curve at half-maximal effect; tags tell the direction and shape of the fitted curve.

SMILES	Potency	activity change, negative = growth inhibition
COc1ccc(CC(=O)NCc2nc3cccnc3n2Cc2ccc(F)cc2)cc1OC	inconclusive [inhibitor, single point]	–
CC(=O)c1c(C)[nH]c(C(=O)OCC(=O)NCCC(C)C)c1C	inconclusive [inhibitor, partial curve]	–
C#CCCCCCCCCCCCc1ccco1	–	inconclusive: -30.3% [inhibitor]
CCSc1nc(N)nc(-c2cccs2)c1C#N	inconclusive [inhibitor, single point]	–
Fc1cccc(Cc2c(C3CCCCC3)nc3c4ccccc4ccn23)c1	active: 13 µM	–
CCOc1cc2[nH]c(=O)n(Cc3ccc(C(=O)NCCN(CC)CC)cc3)c(=O)c2cc1OCC	inconclusive [inhibitor, single point]	–
Cc1ccc(C)c(N2CCN(C(=O)c3ccc(CS(=O)(=O)c4ccc(Br)cc4)o3)CC2)c1	inconclusive [inhibitor, single point]	–
Cc1ccccc1NC(=O)c1sc2nc3c(cc2c1N)CCCC3	active: 3.26 µM	–
CC(C)COc1nc2ccccc2nc1N1CCN(C)CC1	–	inconclusive: -33.8% [inhibitor]
CCCN(C(=O)CCc1nc(-c2ccccc2F)no1)c1ccc(CC)cc1	inconclusive [inhibitor, single point]	–
Cn1c(=O)c2ncn(CC(=O)NCCOc3ccc(C(C)(C)C)cc3)c2n(C)c1=O	–	inconclusive: -33.6% [inhibitor]
COc1ccc2nc(SCC(=O)Nc3nccs3)[nH]c2c1	inconclusive [inhibitor, single point]	–
Cc1c(C(=O)NCCSCc2cccc(C(F)(F)F)c2)cnn1-c1ccc(F)cc1	inconclusive [inhibitor, single point]	–
Cc1cccc(C)c1NC(=S)NNc1ncc(C(F)(F)F)cc1Cl	–	inactive: -12.6%
CCc1noc(C)c1C(=O)Nc1ccc(Cl)c(S(=O)(=O)N2CCCCC2)c1	inconclusive [inhibitor, single point]	–
CC(=O)c1cccc(NC(=O)CCCOc2ccc(C)cc2)c1	–	inconclusive: -35.9% [inhibitor]
CC(C)NC(=O)C1(C)CCN1C(=O)C/C=C/c1ccccc1 (configuration not stated)	inconclusive [inhibitor, single point]	–
COc1cccc(C(NC(C)=O)c2nc(-c3ccc(OC)nc3)cs2)c1 (configuration not stated)	inconclusive [inhibitor, single point]	–
O=C(CCl)N(c1ccccc1)c1c[nH]c2ccccc12	active: 2.91 µM	–
CCOC(=O)N1CCc2c(sc3c2c(=O)n(-c2ccc(CC)cc2)c(=O)n3CC(=O)c2ccc(F)cc2)C1	inconclusive [inhibitor, single point]	–
CC(C)(C)C(C(=O)Oc1ccccc1)c1ccccc1 (configuration not stated)	–	inconclusive: -31.6% [inhibitor]
COc1ccc(S(=O)(=O)N2CCOCC2)cc1C(=O)Nc1cccc(C(=O)NC2CC2)c1	inconclusive [inhibitor, single point]	–
Cc1c2cnn(CC(=O)Nc3cccc(C(F)(F)F)c3)c(=O)c2c(C)n1Cc1ccccc1Cl	inconclusive [inhibitor, single point]	–

SMILES	Potency	activity change, negative = growth inhibition
COc1ccccc1/C=C/c1nc(C#N)c(N(C)C)o1	active: 16.4 µM	–
Cc1nc2c(c(=O)n1CCC(C)C)c1nc3ccccc3nc1n2Cc1ccc2c(c1)OCO2	–	inconclusive: -35% [inhibitor]
CCS(=O)(=O)n1nc(-c2ccccc2)nc1NCc1ccco1	–	inactive: -13.8%
Cc1cc(=O)n2nc(-c3ccccc3)sc2c1C#N	inconclusive [inhibitor, single point]	–
Cc1c2cnn(CC(=O)NC(C)C)c(=O)c2c(C)n1Cc1ccccc1Cl	inconclusive [inhibitor, single point]	–
CCc1cccc(NC(=O)c2ccc(CNc3c(N4CCCC4)c(=O)c3=O)cc2)c1	inconclusive [inhibitor, partial curve, poor fit]	–
O=C(CCNC(=O)c1ccccc1)NCCc1ccc(Cl)cc1	–	inactive: -11.7%
COc1cc(Cl)c(S(=O)(=O)N2CCCC2)cc1Cl	inconclusive [inhibitor, partial curve]	–
COC(=O)C(NC(C)=O)(Nc1nc2ccc(C)cc2s1)C(F)(F)F (configuration not stated)	–	inactive: -19.7%
Clc1ccc(CNc2ccc(N3CCN(Cc4ccccc4)CC3)cc2)cc1	inconclusive [inhibitor, single point]	–
CCOC(=O)CN1C(=O)S/C(=C/c2cc(C)n(C)c2C)C1=O	inconclusive [inhibitor, single point]	–
C#Cc1ccc(NC(=O)C2(C)CCN2C(=O)Cc2ccc(C(C)C)cc2)cc1 (configuration not stated)	inconclusive [inhibitor, single point]	–
COc1ccccc1-c1ccnc(-n2ncc(C(=O)N(C)C(C)c3nc(C)cs3)c2C2CC2)n1 (configuration not stated)	inconclusive [inhibitor, single point]	–
COc1ccc(C(=O)OC(C(=O)c2ccc(C)cc2)c2ccccc2)cc1 (configuration not stated)	inconclusive [inhibitor, single point]	–
C[C@H](CCC(=O)OCc1cn(CC(=O)c2ccc(O)cc2)nn1)C1CC[C@H]2[C@@H]3CC[C@@H]4C[C@H](O)CC[C@]4(C)[C@H]3C[C@H](O)[C@]12C (some centres not stated)	inconclusive [inhibitor, partial curve, poor fit]	–
CC(NC(=O)COC(=O)C1CC1C)c1ccccc1 (configuration not stated)	–	inactive: -0.394%
COc1ccc2c(c1)CCc1cnc(-n3ncc(C(=O)NC4CCOC4)c3C3CC3)nc1-2 (configuration not stated)	inconclusive [inhibitor, single point]	–
CCCNC(=O)c1ccc(N2CCC3(CC2)CC(c2ccccc2)=NO3)c([N+](=O)[O-])c1	inconclusive [inhibitor, single point]	–
Cc1ccc(C)c(S(=O)(=O)N2CCCCC2CCNC(=O)C(=O)NCc2ccccn2)c1 (configuration not stated)	inconclusive [inhibitor, single point]	–
Cc1cccc(N=Nc2ccc(O)c3ncccc23)c1	active: 6.51 µM	–
CC(C)CC(C(=O)O)N1C(=O)[C@@H]2[C@H](C1=O)[C@@H]1C[C@H]2C(Br)C1Br (some centres not stated)	–	inactive: -12%
CSc1cccc(CNC(=O)C2CCC(=O)N(CCc3ccccc3)C2)c1 (configuration not stated)	inconclusive [inhibitor, single point]	–
O=C(NCC1CCCO1)c1cc([N+](=O)[O-])ccc1N1CCC(Cc2ccccc2)CC1 (configuration not stated)	active: 23.1 µM	–

SMILES	Potency	activity change, negative = growth inhibition
CCc1c(C)nc2nc(SCc3ccccc3Cl)[nH]n2c1=O	–	inconclusive: -31.3% [inhibitor]
CCNC(=S)Nc1ccc(Oc2ccccc2)cc1	active: 18.4 µM	–
COC(=O)[C@@]1(Cc2ccc(F)cc2)[C@H]2c3cc(C(=O)N(C)C)n(Cc4cc(C)n(C)n4)c3C[C@H]2CN1C(=O)c1ccccc1	inconclusive [inhibitor, single point]	–
O=C(Cn1nc(-c2ccc(Cl)cc2)ccc1=O)NCc1ccccc1Cl	inconclusive [inhibitor, partial curve]	–
C=CCNc1oc(-c2ccc(OC)cc2)nc1C#N	inconclusive [inhibitor, single point]	–
Cc1cc(NC(=O)c2cnn3c(C(F)F)cc(C4CC4)nc23)no1	active: 11.6 µM	–
CC(C(=O)Nc1cccc(S(=O)(=O)N2CCOCC2)c1)N1CCN(C)CC1 (configuration not stated)	–	inactive: 6.02%
COc1cccc(N2CCN(C3C(=O)c4ccccc4N3C(C)=O)CC2)c1 (configuration not stated)	inconclusive [inhibitor, single point]	–
CCOC(=O)[C@]12CCCC=C1N(Cc1cccc3ccccc13)C(=O)[C@H](CC(=O)NCCCCc1ccccc1)C2	inconclusive [inhibitor, single point]	–
Cn1c(=O)oc2cc(S(=O)(=O)N3CCCC(C(=O)NCC4COc5ccccc5O4)C3)ccc21 (configuration not stated)	inconclusive [inhibitor, single point]	–
COc1ccc(N2CCN(C(=O)c3ccc(-c4nc(COc5ccccc5)c(C)o4)cc3)CC2)cc1	–	inactive: -11.9%
CCOc1ccccc1NC(=S)N1CCC(NC(=O)NC23CC4CC(CC(C4)C2)C3)CC1	inconclusive [inhibitor, partial curve]	–
Cc1cccc(OCC(=O)N(Cc2sccc2C)C2CCS(=O)(=O)C2)c1 (configuration not stated)	inconclusive [inhibitor, single point]	–
CCCCC(C(=O)NC1CCCC1)N(C(=O)c1snc(C(N)=O)c1N)c1ccc(F)cc1 (configuration not stated)	inconclusive [inhibitor, single point]	–
CN(Cc1ccccc1)C(=O)COC(=O)c1cc(S(=O)(=O)N(C)C)ccc1N1CCCC1	–	inconclusive: -30.3% [inhibitor]
COc1ccc(CCC(=O)Nc2ccc(C(=O)c3ccncc3)cc2)cc1	–	inactive: 5%
Cc1cc(OCc2nc(N)nc(N)c2-c2ccc(Cl)c(Cl)c2)ccc1[N+](=O)[O-]	active: 0.13 µM	–
O=C(COc1ccc(S(=O)(=O)N2CCOCC2)cc1Cl)N1CCOCC1	–	inactive: -24.9%
CCCCNC(=O)C(NC(=O)c1cccc2ccccc12)C(=O)c1ccccc1 (configuration not stated)	inconclusive [inhibitor, single point]	–
CC1COC(Cn2c3ccccc3c3ccccc32)O1 (configuration not stated)	active: 18.4 µM	–
Nc1nc(NCCCN2CCOCC2)nc(Nc2cccc(F)c2)c1[N+](=O)[O-]	inconclusive [inhibitor, single point]	–
